Some of the results follow. The list includes weakly bound sequences.
These sequences were tested against T1, MBP-FoxP3dN (UniProt Q99JB6) (assay: PD-seq (MBP pull-down with sequencing)). Conditions: 20 mM Tris-HCl pH 7.5, 100 mM NaCl, 1.5 mM MgCl2, 0.4 uM protein, 0.1 uM dsDNA library, 30 min, room temperature, amylose pull-down; high values mean tight binding; double strand, one strand shown.
T1 sequence: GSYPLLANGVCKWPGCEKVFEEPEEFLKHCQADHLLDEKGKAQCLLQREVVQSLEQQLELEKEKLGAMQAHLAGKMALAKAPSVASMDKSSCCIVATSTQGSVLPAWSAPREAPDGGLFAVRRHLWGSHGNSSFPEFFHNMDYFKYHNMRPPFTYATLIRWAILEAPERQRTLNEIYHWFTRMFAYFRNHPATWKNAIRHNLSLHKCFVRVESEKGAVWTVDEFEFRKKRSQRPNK

| Sequence | binding signal (RPM ratio (pull-down/input)) |
| --- | --- |
| GATGATTGTTCTCCCAGCTGATGAATTGCCTGGCTCGAGTAAACAAATTTTCCTAATCTTTCTGTTCAAGCGCCATCTAC | 0.584 |
| GATGATTGTTCTCCCAGCTGATGAATTACTTACGTCGAGTAAACAAATTTTCCTAATCTTTCTGTTCAAGCGCCATCTAC | 0.48 |
| GATGATTGTTCTCCCAGCTGATGAATTGGGGCGATCGAGTAAACAAATTTTCCTAATCTTTCTGTTCAAGCGCCATCTAC | 0.488 |
| GATGATTGTTCTCCCAGCTGATGAATTTGGTCCGTCGAGTAAACAAATTTTCCTAATCTTTCTGTTCAAGCGCCATCTAC | 0.363 |
| GATGATTGTTCTCCCAGCTGATGAATTTTTATTGTCGAGTAAACAAATTTTCCTAATCTTTCTGTTCAAGCGCCATCTAC | 0.972 |
| GATGATTGTTCTCCCAGCTGATGAATTGGTACTGTCGAGTAAACAAATTTTCCTAATCTTTCTGTTCAAGCGCCATCTAC | 0.64 |
| GATGATTGTTCTCCCAGCTGATGAATTCACAATGTCGAGTAAACAAATTTTCCTAATCTTTCTGTTCAAGCGCCATCTAC | 0.427 |
| GATGATTGTTCTCCCAGCTGATGAATTTAGTTATTCGAGTAAACAAATTTTCCTAATCTTTCTGTTCAAGCGCCATCTAC | 4.3 |
| GATGATTGTTCTCCCAGCTGATGAATTGATTCCTTCGAGTAAACAAATTTTCCTAATCTTTCTGTTCAAGCGCCATCTAC | 0.401 |
| GATGATTGTTCTCCCAGCTGATGAATTAGTCACGTCGAGTAAACAAATTTTCCTAATCTTTCTGTTCAAGCGCCATCTAC | 1.16 |
| GATGATTGTTCTCCCAGCTGATGAATTATTCCGGTCGAGTAAACAAATTTTCCTAATCTTTCTGTTCAAGCGCCATCTAC | 0.22 |
| GATGATTGTTCTCCCAGCTGATGAATTTATCAGATCGAGTAAACAAATTTTCCTAATCTTTCTGTTCAAGCGCCATCTAC | 0.318 |
| GATGATTGTTCTCCCAGCTGATGAATTAGTAGGCTCGAGTAAACAAATTTTCCTAATCTTTCTGTTCAAGCGCCATCTAC | 0.807 |
| GATGATTGTTCTCCCAGCTGATGAATTGCGGCAGTCGAGTAAACAAATTTTCCTAATCTTTCTGTTCAAGCGCCATCTAC | 0.792 |
| GATGATTGTTCTCCCAGCTGATGAATTACGAGCCTCGAGTAAACAAATTTTCCTAATCTTTCTGTTCAAGCGCCATCTAC | 0.504 |
| GATGATTGTTCTCCCAGCTGATGAATTTACCATGTCGAGTAAACAAATTTTCCTAATCTTTCTGTTCAAGCGCCATCTAC | 0.579 |
| GATGATTGTTCTCCCAGCTGATGAATTGGCTTCATCGAGTAAACAAATTTTCCTAATCTTTCTGTTCAAGCGCCATCTAC | 0.462 |
| GATGATTGTTCTCCCAGCTGATGAATTCCGTGTATCGAGTAAACAAATTTTCCTAATCTTTCTGTTCAAGCGCCATCTAC | 1.76 |

Reference: PMC12820563
